Laboratory results as given in ChEMBL document CHEMBL1201862, “PubChem BioAssay data set” (2004).
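Five concentrations, 48 hours, 96-well plates. Abbreviation: GI50, concentration required for 50% inhibition of growth.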 Calls of active or inactive are those of the source. No stated cut-off is given here; in the data, active = GI50 up to about 1.1 µM and inactive = higher.

system: NCI-H322M; experiment: growth of human tumour cells (NCI), 48 h

| SMILES | GI50 |
| --- | --- |
| COC(=O)C1C(C(=O)OC)C2(OC(c3ccc(Cl)cc3)=CC2=O)C12OC(c1ccc(Cl)cc1)=CC2=O (configuration not stated) | inactive: 38.8 µM |
| CCn1c(-c2ccccc2)nc2c1C(=O)c1ccccc1C2=O | inactive: 31.8 µM |
| C[C@]1(CO)[C@H]2CC[C@@]34C=C[C@@](CO)(CC[C@H]3[C@]2(C)CC[C@H]1O)C4 | inactive: > 100 µM |
| N#Cc1nc(-c2cc([N+](=O)[O-])cc([N+](=O)[O-])c2)oc1N | inactive: > 10 µM |
| CCOC(=O)/C=C(/C(=O)OCC)n1cc(C)c(=O)n(Cc2cnnn2CCCCOC(C)=O)c1=O | inactive: > 100 µM |
| NNC(=O)c1ccccc1Nc1nc(-c2cccs2)nc2ccc(Br)cc12 | inactive: > 100 µM |
| CC(=O)Oc1ccccc1[C@H]1CC(=O)C[C@H](c2ccccc2OC(C)=O)C12C(=O)c1ccccc1C2=O | inactive: 58.7 µM |
| COc1cc(/C=N/N=C(\N)NO)c([N+](=O)[O-])cc1OC | inactive: 8.53 µM |
| CN(C(=O)C1CCCCCC1=O)c1ccccc1Cl (configuration not stated) | inactive: > 100 µM |
| Cc1ccc(C)n1-c1ccccc1C1SCCCS1 | inactive: > 100 µM |
| CNC(=O)N(C)COC | inactive: > 100 µM |
| N#CC(C(=O)c1ccccc1F)c1nc2cc(C(F)(F)F)ccc2s1 (configuration not stated) | inactive: 21.3 µM |
| CNC(=O)OCC1=C(COC(=O)NC)C(C)N(c2ccc(OC)cc2)C1 (configuration not stated) | inactive: > 100 µM |
| CCOP(=O)(OCC)/C(C#N)=C/c1ncc[nH]1 | inactive: > 100 µM |
| CCOP(=O)(CN1CCNCCNCC1)OCC | inactive: > 100 µM |
| COC(=O)C(/C(=N/NC(=O)c1ccncc1)C(=O)Nc1ccccc1OC)c1nc2ccc(Cl)cc2nc1O (configuration not stated) | inactive: > 100 µM |
| N#C/C(C(=S)NCc1ccccc1)=C(/N)N1CCCC1 | inactive: > 100 µM |
| COc1cc(-c2ccccc2)c(OC)cc1CCl | inactive: > 100 µM |
| CN(C)CCCNc1ncnc2c1ncn2C1OC(CO)C(O)C1O (configuration not stated) | inactive: > 100 µM |
| COc1ccc2oc(=O)c(CC=C(C)C)c(O)c2c1C | inactive: > 100 µM |
| O=c1[nH]c2nccn2c2c1SCCN2 | inactive: > 100 µM |

| SMILES | GI50 |
| --- | --- |
| CC(=O)NC1C(OCc2ccccc2)OC(CO)C(O)C1OCC(=O)N[C@@H](C)C(=O)N[C@H](CCC(=O)NCCNCCNc1c2ccccc2nc2cccc([N+](=O)[O-])c12)C(N)=O (some centres not stated) | inactive: 46.2 µM |
| O=C1CCN(CCC(F)(F)C(F)(F)C(F)(F)C(F)(F)C(F)(F)C(F)(F)F)C(=S)N1CCC(F)(F)C(F)(F)C(F)(F)C(F)(F)C(F)(F)C(F)(F)F | inactive: > 100 µM |
| C/C(=N\Nc1nc2ccccc2n1C)c1cc2ccccc2cn1 | active: < 0.0323 µM |
| NS(=O)(=O)c1ccc(NCc2cccc3c(=O)c4ccc(Cl)cc4oc23)cc1 | inactive: > 60.7 µM |
| COc1ccccc1C(=O)OCC1CCCN2CCCCC12 (configuration not stated) | inactive: 79.3 µM |
| CC(C#N)(NO)C(C)(C#N)NO (configuration not stated) | inactive: > 100 µM |
| CC(C)=CCC[C@@H](C)C1=C(O)C(=O)C(C)=C(Nc2ccccc2Br)C1=O | inactive: 18.9 µM |
| C[Si](C)(C)/C(Br)=C\CCN1C(=O)CCC1=O | inactive: > 100 µM |
| CC1(c2ccccc2)CCN(C2CC2)CO1 (configuration not stated) | inactive: > 100 µM |
| O=S(=O)(O)c1cc(/N=N/c2cc(S(=O)(=O)O)c3cccnc3c2O)ccc1/C=C/c1ccc(/N=N/c2cc(S(=O)(=O)O)c3cccnc3c2O)cc1S(=O)(=O)O | inactive: > 100 µM |
| COc1cc(CNC2c3cc4c(cc3C(c3cc(OC)c(OC)c(OC)c3)[C@H]3C(=O)OCC23)OCO4)cc(OC)c1OC (some centres not stated) | active: 0.481 µM |
| C=C1CC2CC[C@@]34C[C@@H]5O[C@@H]6C(O[C@H]7CC[C@H](CC(=O)OC8[C@@H](C)C9OC%10C[C@]%11(C[C@@H]%12O[C@@]%13(C[C@@H](C)[C@@H]%12O%11)C[C@H](C)[C@@H]%11OC%12CC(C(O)CO)OC%12C[C@@H]%11O%13)OC%10CC9O[C@H]8C[C@H]8O[C@@H](CC[C@@H]1O2)C[C@@H](C)C8=C)O[C@@H]7[C@@H]6O3)C5O4 (some centres not stated) | active: 0.00188 µM |
| CC(=O)O[C@@H]1CC[C@@]2(C)C(=O)C34C[C@@]5(C)C([C@@H](C)CCCC(C)C)CCC5(C)[C@](O)(O3)C(=O)[C@H]4C2C1(C)C (some centres not stated) | inactive: 19.1 µM |
| C=C1C2CC(OC(C)=O)C3(C)C(c4ccoc4)OC(=O)[C@@H](O)[C@]13OC1C[C@H](OC(C)=O)C(C)(C)[C@H](C(O)C(=O)OC)[C@]12C (some centres not stated) | inactive: > 100 µM |
| COC1C(CO)OC(n2c3c(Cl)cccc3c3c4c(c5c6cccc(Cl)c6[nH]c5c32)C(=O)NC4=O)C(O)C1O (configuration not stated) | active: 0.28 µM |
| COc1cc2c(c(OC)c1OC)-c1ccc(OC)c(=O)cc1[C@@H](NC(=O)c1ccccc1)CC2 | active: 0.0176 µM |
| COc1ccc(CNc2cc(OC)cc(OC)c2)cc1 | inactive: 57.8 µM |
| C[n+]1ccc(/C2=C3\C=CC(=N3)/C(c3cc[n+](C)cc3)=c3/cc/c([nH]3)=C(\c3cc[n+](C)cc3)C3=N/C(=C(/c4cc[n+](C)cc4)C4C=CC2N4)C=C3)cc1 | inactive: > 100 µM |
| NNC(=O)C1CCC(=O)N1S(=O)(=O)c1ccccc1 (configuration not stated) | inactive: > 100 µM |
| CCOC(=O)c1c(NC(=O)c2cccs2)sc2c1CCCC2 | inactive: > 66.8 µM |
| O=C1OCC2OC(=O)c3cc(O)c(O)c(O)c3-c3c(O)c(O)c(O)c4c3C(=O)OC(C2OC(=O)c2cc(O)c(O)c(O)c2-c2c1cc(O)c(O)c2O)C1OC(=O)C2C4=C(O)C(=O)C23Oc2cc(O)c4c(c2[C@H]13)O[C@H](c1ccc(O)c(O)c1)[C@@H](O)C4 (some centres not stated) | inactive: 20.2 µM |
